This note sets out measurements from a collection of fitness landscapes (doi:10.1126/science.1257360).

Sequences and labels used below:
B1: PhoQ; a variant is named by its letters at X, in order, P23837 (parent)
chain: MKKLLRLFFPLSLRVRFLLATAAVVLVLSLAYGMVALIGYSVSFDKTTFRLLRGESNLFYTLAKWENNKLHVELPENIDKQSPTMTLIYDENGQLLWAQRDVPWLMKMIQPDWLKSNGFHEIEADVNDTSLLLSGDHSIQQQLQEVREDDDDAEMTHSVAVNVYPATSRMPKLTIVVVDTIPVELKSSYMVWSWFIYVLSANLLLVIPLLWVAAWWSLRPIEALAKEVRELEEHNRELLNPATTRELTSLVRNLNRLLKSERERYDKYRTTLTDLTHSLKTPLXXLQXXLRSLRSEKMSVSDAEPVMLEQISRISQQIGYYLHRASMRGGTLLSRELHPVAPLLDNLTSALNKVYQRKGVNISLDISPEISFVGEQNDFVEVMGNVLDNACKYCLEFVEISARQTDEHLYIVVEDDGPGIPLSKREVIFDRGQRVDTLRPGQGVGLAVAREITEQYEGKIVAGESMLGGARMEVIFGRQHSAPKDE

The list shows a part of the results.

In the assay the parent is B1. Put plainly: enrichment ratio after two sorts for PhoP signalling (ratio (wild type AVST 3.29)); higher = more functional. The note with it: with PhoP (E. coli).
As to WKGK, the enrichment ratio is at most 0.25. Take WHRV: the enrichment ratio is at most 0.25.

As to FCRM, the enrichment ratio is at most 0.25. In the case of QIYM, the enrichment ratio is at most 0.25. On to RVLW, for which the enrichment ratio is at most 0.25. For LAGW, the enrichment ratio was at most 0.25. Regarding LDFK, the enrichment ratio came to 0.45. LEWK: the enrichment ratio is at most 0.25. As for RHYM, the enrichment ratio was at most 0.25. The value for VWHD was at most 0.25; that for QFHK was at most 0.25; that for RILD was at most 0.25. With QYQG, the enrichment ratio was found to be 3.68. With VWWD, the enrichment ratio is at most 0.25.

In the case of GQQY, the enrichment ratio is at most 0.25. To WMLK belongs at most 0.25. To RWAQ belongs at most 0.25; to INMP, at most 0.25. The value for VNCR was at most 0.25; that for RNMS was at most 0.25; that for NQQK was at most 0.25. LQMI: the enrichment ratio is at most 0.25. NDGN: the enrichment ratio is at most 0.25.

Take FAYS: the enrichment ratio is at most 0.25. For LVGS, the enrichment ratio is at most 0.25.

In the case of DNCC, the enrichment ratio is at most 0.25. To NICW belongs at most 0.25; to LGQN, at most 0.25. Regarding WLSG, the enrichment ratio was at most 0.25. Take IWFI: the enrichment ratio was at most 0.25. Take KKFY: the enrichment ratio was at most 0.25. With FEGP, the enrichment ratio is at most 0.25. The value for SWMS was at most 0.25; that for IKGA was at most 0.25; that for YIQI was 0.444. FAKM: the enrichment ratio was at most 0.25. Consider AHHM, for which the enrichment ratio was at most 0.25. Take IEPK: the enrichment ratio was at most 0.25. Turning to FMKW, the enrichment ratio is at most 0.25. Turning to KQAF, the enrichment ratio was at most 0.25. To GTVD belongs at most 0.25; to PWLW, at most 0.25; to KTRA, at most 0.25. On to IEPR, for which the enrichment ratio was at most 0.25. In the case of LAHM, the enrichment ratio was 2.91.

As for PAVN, the enrichment ratio was at most 0.25. For KEVM, the enrichment ratio was at most 0.25. With NWSL, the enrichment ratio was at most 0.25. Regarding PSYR, the enrichment ratio is at most 0.25. Take MWPI: the enrichment ratio is at most 0.25. For RKSR, the enrichment ratio is at most 0.25. In the case of DYVA, the enrichment ratio is at most 0.25.

In the case of GWIK, the enrichment ratio was at most 0.25. On to FQHE, for which the enrichment ratio was at most 0.25. In the case of YSCW, the enrichment ratio was at most 0.25. To ITLK belongs at most 0.25; to LQHC, at most 0.25.

With MSYI, the enrichment ratio amounted to 12.1. To VVVV belongs at most 0.25. The value for AKYE was at most 0.25; that for KYAY was at most 0.25; that for QKCR was at most 0.25. Consider WPAI, for which the enrichment ratio is at most 0.25. On to HISH, for which the enrichment ratio was at most 0.25. WFYN: the enrichment ratio was at most 0.25. The value for AAMN was at most 0.25; that for KVYQ was at most 0.25. For PCEK, the enrichment ratio was at most 0.25. As for KPGY, the enrichment ratio was at most 0.25. With WHWS, the enrichment ratio is at most 0.25. Regarding HFNM, the enrichment ratio was at most 0.25. The value for SDSH was at most 0.25. To KSIN belongs at most 0.25.

Turning to KELV, the enrichment ratio is at most 0.25. In the case of NRWL, the enrichment ratio was at most 0.25. To YLIW belongs at most 0.25.

For YPRD, the enrichment ratio is at most 0.25. With LNYA, the enrichment ratio was at most 0.25. Regarding PRPT, the enrichment ratio is at most 0.25.

In the case of KMDK, the enrichment ratio is at most 0.25.

Consider NNFE, for which the enrichment ratio is at most 0.25. With MVDR, the enrichment ratio was at most 0.25. The value for PPTQ was at most 0.25; that for GFNW was at most 0.25; that for DELG was at most 0.25.

Take FRLL: the enrichment ratio is at most 0.25. To IFTF belongs at most 0.25; to ACCK, 12.8; to DDIR, at most 0.25.

For the variant QYVL, the enrichment ratio is at most 0.25.

For LLRQ, the enrichment ratio was at most 0.25. Consider TNMQ, for which the enrichment ratio came out at 11.1.

As to RKVW, the enrichment ratio was at most 0.25. On to DWYG, for which the enrichment ratio is at most 0.25. For ARFN, the enrichment ratio was at most 0.25. Turning to HYTG, the enrichment ratio is at most 0.25. On to TPTM, for which the enrichment ratio is at most 0.25.

QPHY: the enrichment ratio was at most 0.25. Turning to HAEW, the enrichment ratio is at most 0.25. The value for TTMF was 20.9; that for MNNT was at most 0.25. LLCW: the enrichment ratio was at most 0.25.

As to MFQL, the enrichment ratio is at most 0.25.

In the case of ILHK, the enrichment ratio was at most 0.25. Turning to RIPS, the enrichment ratio is at most 0.25. With YQRD, the enrichment ratio is at most 0.25. VETN: the enrichment ratio was at most 0.25. On to KNCC, for which the enrichment ratio is at most 0.25. Regarding VHAH, the enrichment ratio is at most 0.25. With FITK, the enrichment ratio is at most 0.25. DREI: the enrichment ratio is at most 0.25. As to EPHK, the enrichment ratio was at most 0.25.

In the case of NLLY, the enrichment ratio is at most 0.25. To FYNK belongs at most 0.25; to KKNQ, at most 0.25; to DPCI, at most 0.25.

Turning to YYGY, the enrichment ratio is at most 0.25. On to HELC, for which the enrichment ratio was at most 0.25. For TMPM, the enrichment ratio is at most 0.25.

Turning to IHKG, the enrichment ratio was at most 0.25. To YMYY belongs at most 0.25; to NGCG, at most 0.25; to FRSL, at most 0.25.

Consider DLEN, for which the enrichment ratio was at most 0.25. For the variant TQCP, the enrichment ratio is at most 0.25. Turning to LELF, the enrichment ratio was at most 0.25. On to MYNQ, for which the enrichment ratio was at most 0.25.

Take GTPD: the enrichment ratio was at most 0.25. As for IPKK, the enrichment ratio is at most 0.25. For LFYF, the enrichment ratio is at most 0.25. As for DGDV, the enrichment ratio is at most 0.25. To IMLQ belongs at most 0.25. To QSDG belongs 11.8; to LRYK, at most 0.25; to TCFV, at most 0.25. To MCDR belongs at most 0.25; to RMLH, at most 0.25.

In the case of WAMY, the enrichment ratio is at most 0.25.

On to RNFT, for which the enrichment ratio is at most 0.25.

Take WFHM: the enrichment ratio is at most 0.25. IHFG: the enrichment ratio was at most 0.25. To SDMN belongs 6.8; to WDAI, at most 0.25; to LKQY, at most 0.25. To IHKC belongs at most 0.25; to LTIN, at most 0.25; to QLND, at most 0.25. On to MVDK, for which the enrichment ratio was at most 0.25. In the case of CIDF, the enrichment ratio was at most 0.25. As for IRAR, the enrichment ratio is at most 0.25. As for AQYF, the enrichment ratio was 0.277.

For LQQN, the enrichment ratio worked out at 3.31.

As for QMKS, the enrichment ratio is at most 0.25.
